Experimental findings from PMC4336329 (PLoS ONE, 2015) are described below.

About 14,000 (4.5%) of roughly 310,000 compounds showed an effect of 50% or more. The effect is printed as a negative number. Some of the results follow.
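Further: peak tail current of the secondary pulse compared with the same well before compound.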

human ether-à-go-go-related gene (hERG) potassium channel, sequence (Q12809 whole entry, looked up): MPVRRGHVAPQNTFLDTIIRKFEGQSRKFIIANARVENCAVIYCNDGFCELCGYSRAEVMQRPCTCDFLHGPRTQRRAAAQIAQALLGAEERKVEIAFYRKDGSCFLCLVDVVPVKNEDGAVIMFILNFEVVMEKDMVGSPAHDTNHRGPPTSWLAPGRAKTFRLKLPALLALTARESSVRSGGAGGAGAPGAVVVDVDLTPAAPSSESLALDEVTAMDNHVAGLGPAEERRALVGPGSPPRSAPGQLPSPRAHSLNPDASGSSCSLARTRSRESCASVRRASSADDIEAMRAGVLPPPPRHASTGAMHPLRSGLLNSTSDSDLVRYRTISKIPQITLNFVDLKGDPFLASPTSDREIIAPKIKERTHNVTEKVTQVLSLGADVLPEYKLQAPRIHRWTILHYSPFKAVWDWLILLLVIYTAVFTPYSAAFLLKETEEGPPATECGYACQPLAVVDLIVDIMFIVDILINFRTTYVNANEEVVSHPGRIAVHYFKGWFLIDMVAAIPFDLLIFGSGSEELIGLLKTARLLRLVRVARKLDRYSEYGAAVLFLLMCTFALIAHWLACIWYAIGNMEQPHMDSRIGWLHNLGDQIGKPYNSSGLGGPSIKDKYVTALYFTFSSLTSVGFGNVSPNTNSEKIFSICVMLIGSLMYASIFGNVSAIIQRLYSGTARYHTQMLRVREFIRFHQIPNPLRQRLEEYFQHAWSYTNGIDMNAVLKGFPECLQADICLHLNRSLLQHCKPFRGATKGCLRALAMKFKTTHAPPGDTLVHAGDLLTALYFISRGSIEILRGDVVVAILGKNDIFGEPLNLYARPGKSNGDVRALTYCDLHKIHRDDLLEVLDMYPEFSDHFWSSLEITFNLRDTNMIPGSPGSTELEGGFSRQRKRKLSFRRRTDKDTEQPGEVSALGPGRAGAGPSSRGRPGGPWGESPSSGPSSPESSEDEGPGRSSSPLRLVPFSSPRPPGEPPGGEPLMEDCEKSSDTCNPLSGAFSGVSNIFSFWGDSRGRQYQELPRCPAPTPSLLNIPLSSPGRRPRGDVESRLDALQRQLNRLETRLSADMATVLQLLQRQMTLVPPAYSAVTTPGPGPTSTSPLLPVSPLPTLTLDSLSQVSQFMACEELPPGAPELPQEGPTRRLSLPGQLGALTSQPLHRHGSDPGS

The assay addresses human ether-à-go-go-related gene (hERG) potassium channel (human, UniProt Q12809). Put plainly: primary screen, population patch clamp on CHO cells stably expressing hERG.
Turning to `NC(=O)N/N=C/c1sc(=O)n(-c2ccccc2)c1Cl`, the “hERG current change (%, negative = inhibition) at 10uM” value stood at 13.8%.
In the case of `O=C(Cc1cccs1)Nc1ccc(F)c(S(=O)(=O)N2CCOCC2)c1` it was -36.6%; in that of `Cc1ccc(NCC(=O)N/N=C\C(Br)=C\c2ccccc2)cc1`, -8.87%.
Then `Cc1cc(F)ccc1NC(=O)C1CSC2(C)CCC(=O)N12` (centres unmarked), with -3.86%.
On to `COc1n[nH]c(C(=O)Nc2cc(F)ccc2C)c1[N+](=O)[O-]`, for which the “hERG current change (%, negative = inhibition) at 10uM” value is on record as 18.3%.
In the case of `COC(=O)c1ccc(CSc2ccc3nnc(-c4cccc(F)c4)n3n2)o1` it was -62%.
Then `CC(=O)c1ccc(Oc2ccc(C(=O)c3ccc(C)c(C)c3)cc2[N+](=O)[O-])cc1`, with 11.1%.
In the case of `CCCC1C2CN(C(C)=O)CC=C2C(C#N)=C(N)C1(C#N)C#N` (centres unmarked) it was -4.14%; in that of `COc1ccccc1C(=O)Nc1nnc(-c2ccccc2)s1`, 11.9%; in that of `O=C(c1cnn2c(C(F)(F)F)cc(-c3ccco3)nc12)N1CCCc2ccccc21`, -6.54%.
For `Cc1cc(N2CCOCC2)nc(-c2ccccc2O)n1`, the “hERG current change (%, negative = inhibition) at 10uM” value is listed as 7.69%.
Then `CC(C)n1nccc1N(Cc1ccc(C#N)cc1)S(=O)(=O)c1ccccc1`, with -13.7%; and `C#CCSc1nc2ccccc2n1C(=O)c1ccc(S(=O)(=O)N2CCCCC2)cc1`, with -4.22%.
Then `CCOC(=O)c1sc(N)c(C#N)c1CSc1nc2ccc(C)cc2[nH]1`, with -15.8%; and `COc1ccc(CCNC(=O)/C=C/c2ccco2)cc1OC`, with 0.593%; and `O=C(N/N=C/c1ccoc1)c1ccc(Cl)cc1`, with -37.8%.
Then `CCC(C)n1c(SCC(=O)NCCc2ccc(S(N)(=O)=O)cc2)nc2ccsc2c1=O` (centres unmarked), with -1.16%; and `Br.COC(=O)c1ccc(CN2CCSC2=N)cc1`, with 6.85%; and `CC1CCN(C(=O)c2ccc(NS(=O)(=O)c3cccs3)cc2)CC1`, with 17.2%.
Regarding `O=C(c1oc(=O)c2ccccc2c1-c1ccccc1)N1CCOCC1`, the “hERG current change (%, negative = inhibition) at 10uM” value is recorded as -24.6%.
In the case of `CCOC(=O)c1sc2nc(C)nc(SCC(=O)NC3CCS(=O)(=O)C3)c2c1C` (centres unmarked) it was 2.56%; in that of `O=C(NNC(=S)Nc1cccc(C(F)(F)F)c1)c1ccccc1Cl`, 18.6%; in that of `CSc1nc2sccc2c(=O)[nH]1`, 32.8%.
In the case of `Cc1c(CC(=O)NCCC(=O)O)c(=O)oc2cc3occ(-c4ccccc4)c3cc12` it was 7.11%; in that of `COc1ccccc1CCNCc1cc2c(cc1[N+](=O)[O-])OCO2`, -27.7%.
In the case of `O=C(O)/C(=C\c1ccc(F)cc1)c1ccc(-c2ccccc2)cc1` it was -2.31%; in that of `O=C(Nc1ccc(S(=O)(=O)N2CCOCC2)cc1)c1ccc([N+](=O)[O-])o1`, -28.8%; in that of `Cc1ccc(NC(=O)COC(=O)C2CC3CCCC(C2)C3=O)c([N+](=O)[O-])c1` (centres unmarked), -6.56%.
Turning to `CCc1nc(SCC(=O)N2CCN(C(=O)c3ccco3)CC2)c2c3c(sc2n1)CCCC3`, the “hERG current change (%, negative = inhibition) at 10uM” value is -46%.
Then `Cc1ccc(C)c(NC(=O)CN(C)C(=O)C2CCN(S(=O)(=O)c3ccc4c(c3)OCCO4)CC2)c1`, with -10.6%; and `COc1ccc(C(C(=O)NC2CCCC2)N(Cc2cccnc2)C(=O)c2snc(C(N)=O)c2N)cc1OC` (centres unmarked), with 14.5%.
Then `O=C(NCc1ccco1)C1CCCN1C(=O)NCc1ccccc1` (centres unmarked), with -1.87%.
In the case of `Cn1nnc2cc(C(=O)Nc3ccc4ccccc4c3)ccc21` it was 13.3%; in that of `CC(CN1CCCCC1)OC(=O)CCc1ccccc1.Cl` (centres unmarked), -14.5%; in that of `Cc1c(C)c2cc(Cl)c(OCC(=O)N3CCN(c4ccc(F)cc4)CC3)cc2oc1=O`, 9.44%.
In the case of `O=C1c2cccnc2C(Nc2ccccc2Br)N1Cc1ccco1` (centres unmarked), the “hERG current change (%, negative = inhibition) at 10uM” value was -6.88%.
In the case of `COc1ccc(-c2cc(C(F)F)n3ncc(C(=O)n4ccnc4C)c3n2)cc1` it was 6.68%; in that of `COc1ncccc1C(=O)NC1CCCc2c1cnn2-c1ccc(C)c(C)c1` (centres unmarked), -23.3%.
In the case of `O=C(C[n+]1ccn(CCCNP2(=O)C=C(c3ccccc3)OC(c3ccccc3)=C2)c1)c1cccs1.[Br-]` it was -44.7%.
`Cc1cccc(C(=O)N2CCc3cc(-c4csc(NC(=O)CN5CCCC5)n4)ccc32)c1`: the “hERG current change (%, negative = inhibition) at 10uM” value is reported as -6.77%.
Then `CCc1ccc(NC(=O)COC(=O)c2nc3nc(C)cc(C)n3n2)cc1`, with -27.2%.
Then `COc1ccc(NC(C)=O)cc1S(=O)(=O)N1CCN(C/C=C/c2ccccc2)CC1`, with -69.3%; and `CCC(CC)c1nnc(NC(=O)CCN2C(=O)c3ccccc3C2=O)s1`, with 9.47%.
As to `Cc1cc(C)n2c(SCC#N)nnc2n1`, the “hERG current change (%, negative = inhibition) at 10uM” value came to 0.567%.
